Data as given in article PMC12563811.
No constants are given. Whether binding was seen depends on the method and setting. Binding seen in cells or lysates may run through a third protein. Some results given as binding are weak or reduced against the parent protein; the word gives no strength. Values belong to the binder of their own block, whether it stands above or below them.

How the values were obtained:
[1] = biological target: T1, transcobalamin 1 (TCN1), in 293T cells (UniProt P20061); experiment: co-IP; in 293T cells; TCN1 pulldown and reciprocal STAT4 pulldown, Western blot
T1 sequence: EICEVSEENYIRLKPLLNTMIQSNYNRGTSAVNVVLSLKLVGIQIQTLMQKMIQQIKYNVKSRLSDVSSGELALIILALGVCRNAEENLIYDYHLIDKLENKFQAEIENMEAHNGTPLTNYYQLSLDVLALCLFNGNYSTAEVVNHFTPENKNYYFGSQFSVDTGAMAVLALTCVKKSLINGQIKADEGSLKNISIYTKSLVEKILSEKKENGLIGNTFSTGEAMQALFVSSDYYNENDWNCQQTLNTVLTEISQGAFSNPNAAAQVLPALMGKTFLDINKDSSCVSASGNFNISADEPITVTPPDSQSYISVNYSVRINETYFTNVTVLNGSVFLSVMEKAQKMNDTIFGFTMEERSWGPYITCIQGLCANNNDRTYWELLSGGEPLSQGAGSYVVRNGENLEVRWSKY

[2] = biological target: T2, transcobalamin 1 (TCN1), in PANC-1 cells (UniProt P20061); experiment: co-IP; in PANC-1 cells; both directions, Western blot
T2 sequence: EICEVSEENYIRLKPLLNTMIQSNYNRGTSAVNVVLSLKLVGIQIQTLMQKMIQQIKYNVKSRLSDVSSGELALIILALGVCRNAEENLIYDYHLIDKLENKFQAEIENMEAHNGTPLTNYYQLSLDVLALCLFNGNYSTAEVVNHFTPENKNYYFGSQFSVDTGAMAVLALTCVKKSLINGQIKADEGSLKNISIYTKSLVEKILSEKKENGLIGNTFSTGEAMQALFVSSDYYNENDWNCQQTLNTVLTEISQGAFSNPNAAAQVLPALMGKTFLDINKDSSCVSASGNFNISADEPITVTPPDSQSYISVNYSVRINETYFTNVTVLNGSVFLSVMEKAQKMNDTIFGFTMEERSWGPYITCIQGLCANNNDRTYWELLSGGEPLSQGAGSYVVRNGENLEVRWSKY

[3] = biological target: T3, signal transducer and activator of transcription 4 (STAT4), in the co-IP with the TCN1 truncation mutants (UniProt Q14765); experiment: co-IP; three TCN1 truncation mutants with STAT4, Western blot; cell line and bait not stated
T3 sequence: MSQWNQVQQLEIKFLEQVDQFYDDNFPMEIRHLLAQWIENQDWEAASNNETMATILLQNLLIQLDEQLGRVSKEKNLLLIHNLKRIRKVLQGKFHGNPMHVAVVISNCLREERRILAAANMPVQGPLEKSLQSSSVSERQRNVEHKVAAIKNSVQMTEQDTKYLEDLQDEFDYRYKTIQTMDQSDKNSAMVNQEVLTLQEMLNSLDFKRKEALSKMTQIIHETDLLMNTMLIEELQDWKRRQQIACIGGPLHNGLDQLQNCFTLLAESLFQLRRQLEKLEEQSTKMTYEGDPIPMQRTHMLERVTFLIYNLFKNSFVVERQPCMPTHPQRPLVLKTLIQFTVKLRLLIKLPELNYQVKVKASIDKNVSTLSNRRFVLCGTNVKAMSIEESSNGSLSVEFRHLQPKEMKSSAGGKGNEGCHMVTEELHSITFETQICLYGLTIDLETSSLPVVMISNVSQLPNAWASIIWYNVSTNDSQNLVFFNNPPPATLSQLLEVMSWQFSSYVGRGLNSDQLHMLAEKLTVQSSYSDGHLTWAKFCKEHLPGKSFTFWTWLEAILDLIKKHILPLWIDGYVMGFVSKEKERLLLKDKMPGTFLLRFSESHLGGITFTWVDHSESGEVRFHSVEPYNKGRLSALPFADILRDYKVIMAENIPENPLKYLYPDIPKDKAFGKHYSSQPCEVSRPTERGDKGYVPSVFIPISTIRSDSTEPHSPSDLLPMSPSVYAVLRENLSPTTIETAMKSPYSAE

[4] = biological target: T4, signal transducer and activator of transcription 4 (STAT4), in 293T cells (UniProt Q14765); experiment: co-IP; in 293T cells; TCN1 pulldown and reciprocal STAT4 pulldown, Western blot
T4 sequence: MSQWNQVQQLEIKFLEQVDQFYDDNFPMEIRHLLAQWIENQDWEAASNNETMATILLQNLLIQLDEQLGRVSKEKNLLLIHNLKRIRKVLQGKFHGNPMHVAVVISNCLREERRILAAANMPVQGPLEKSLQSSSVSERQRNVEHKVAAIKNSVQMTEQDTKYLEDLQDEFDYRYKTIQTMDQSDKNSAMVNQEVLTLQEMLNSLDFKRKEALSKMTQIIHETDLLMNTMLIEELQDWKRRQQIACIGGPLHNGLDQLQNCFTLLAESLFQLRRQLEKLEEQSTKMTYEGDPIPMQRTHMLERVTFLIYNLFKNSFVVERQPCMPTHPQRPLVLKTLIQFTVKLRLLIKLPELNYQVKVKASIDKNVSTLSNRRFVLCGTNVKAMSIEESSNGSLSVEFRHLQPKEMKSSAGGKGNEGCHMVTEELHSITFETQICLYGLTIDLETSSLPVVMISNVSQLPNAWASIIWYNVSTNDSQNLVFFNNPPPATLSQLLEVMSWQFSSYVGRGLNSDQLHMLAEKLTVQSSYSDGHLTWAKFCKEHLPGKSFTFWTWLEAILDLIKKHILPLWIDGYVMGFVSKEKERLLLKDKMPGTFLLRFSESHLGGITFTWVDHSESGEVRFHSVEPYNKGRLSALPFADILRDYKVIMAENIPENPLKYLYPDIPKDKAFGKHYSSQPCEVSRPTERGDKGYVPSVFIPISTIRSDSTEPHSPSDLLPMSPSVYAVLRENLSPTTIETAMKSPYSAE

[5] = biological target: T5, signal transducer and activator of transcription 4 (STAT4), in PANC-1 cells (UniProt Q14765); experiment: co-IP; in PANC-1 cells; both directions, Western blot
T5 sequence: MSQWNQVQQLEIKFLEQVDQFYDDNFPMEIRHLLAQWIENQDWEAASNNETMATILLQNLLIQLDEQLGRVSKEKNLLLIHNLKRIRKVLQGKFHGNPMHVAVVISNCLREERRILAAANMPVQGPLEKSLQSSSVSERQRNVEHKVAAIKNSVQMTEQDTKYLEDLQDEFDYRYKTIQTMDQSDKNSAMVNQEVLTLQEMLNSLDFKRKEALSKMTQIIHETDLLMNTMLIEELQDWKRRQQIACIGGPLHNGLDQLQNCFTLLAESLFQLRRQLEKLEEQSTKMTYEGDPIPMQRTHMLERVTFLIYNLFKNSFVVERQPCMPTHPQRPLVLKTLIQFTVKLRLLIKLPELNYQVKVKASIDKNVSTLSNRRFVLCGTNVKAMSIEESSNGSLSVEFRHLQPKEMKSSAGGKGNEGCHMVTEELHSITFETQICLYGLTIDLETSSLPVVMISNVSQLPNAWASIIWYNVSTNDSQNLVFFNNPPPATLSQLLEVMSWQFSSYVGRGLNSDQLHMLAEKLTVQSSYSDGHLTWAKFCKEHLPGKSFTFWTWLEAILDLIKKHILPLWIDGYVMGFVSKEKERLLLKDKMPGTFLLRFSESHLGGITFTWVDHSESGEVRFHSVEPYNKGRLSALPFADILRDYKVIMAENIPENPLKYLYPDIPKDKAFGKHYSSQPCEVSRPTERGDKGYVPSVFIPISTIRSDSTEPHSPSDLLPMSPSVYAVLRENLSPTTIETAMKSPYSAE

- binding [2]: binds
B2: signal transducer and activator of transcription 4 (STAT4), in PANC-1 cells (protein, UniProt Q14765 1-748)
chain: MSQWNQVQQLEIKFLEQVDQFYDDNFPMEIRHLLAQWIENQDWEAASNNETMATILLQNLLIQLDEQLGRVSKEKNLLLIHNLKRIRKVLQGKFHGNPMHVAVVISNCLREERRILAAANMPVQGPLEKSLQSSSVSERQRNVEHKVAAIKNSVQMTEQDTKYLEDLQDEFDYRYKTIQTMDQSDKNSAMVNQEVLTLQEMLNSLDFKRKEALSKMTQIIHETDLLMNTMLIEELQDWKRRQQIACIGGPLHNGLDQLQNCFTLLAESLFQLRRQLEKLEEQSTKMTYEGDPIPMQRTHMLERVTFLIYNLFKNSFVVERQPCMPTHPQRPLVLKTLIQFTVKLRLLIKLPELNYQVKVKASIDKNVSTLSNRRFVLCGTNVKAMSIEESSNGSLSVEFRHLQPKEMKSSAGGKGNEGCHMVTEELHSITFETQICLYGLTIDLETSSLPVVMISNVSQLPNAWASIIWYNVSTNDSQNLVFFNNPPPATLSQLLEVMSWQFSSYVGRGLNSDQLHMLAEKLTVQSSYSDGHLTWAKFCKEHLPGKSFTFWTWLEAILDLIKKHILPLWIDGYVMGFVSKEKERLLLKDKMPGTFLLRFSESHLGGITFTWVDHSESGEVRFHSVEPYNKGRLSALPFADILRDYKVIMAENIPENPLKYLYPDIPKDKAFGKHYSSQPCEVSRPTERGDKGYVPSVFIPISTIRSDSTEPHSPSDLLPMSPSVYAVLRENLSPTTIETAMKSPYSAE

- binding [4]: binds
B5: transcobalamin 1 (TCN1), in 293T cells (protein, UniProt P20061 24-433)
chain: EICEVSEENYIRLKPLLNTMIQSNYNRGTSAVNVVLSLKLVGIQIQTLMQKMIQQIKYNVKSRLSDVSSGELALIILALGVCRNAEENLIYDYHLIDKLENKFQAEIENMEAHNGTPLTNYYQLSLDVLALCLFNGNYSTAEVVNHFTPENKNYYFGSQFSVDTGAMAVLALTCVKKSLINGQIKADEGSLKNISIYTKSLVEKILSEKKENGLIGNTFSTGEAMQALFVSSDYYNENDWNCQQTLNTVLTEISQGAFSNPNAAAQVLPALMGKTFLDINKDSSCVSASGNFNISADEPITVTPPDSQSYISVNYSVRINETYFTNVTVLNGSVFLSVMEKAQKMNDTIFGFTMEERSWGPYITCIQGLCANNNDRTYWELLSGGEPLSQGAGSYVVRNGENLEVRWSKY

- binding [5]: binds
B6: transcobalamin 1 (TCN1), in PANC-1 cells (protein, UniProt P20061 24-433)
chain: EICEVSEENYIRLKPLLNTMIQSNYNRGTSAVNVVLSLKLVGIQIQTLMQKMIQQIKYNVKSRLSDVSSGELALIILALGVCRNAEENLIYDYHLIDKLENKFQAEIENMEAHNGTPLTNYYQLSLDVLALCLFNGNYSTAEVVNHFTPENKNYYFGSQFSVDTGAMAVLALTCVKKSLINGQIKADEGSLKNISIYTKSLVEKILSEKKENGLIGNTFSTGEAMQALFVSSDYYNENDWNCQQTLNTVLTEISQGAFSNPNAAAQVLPALMGKTFLDINKDSSCVSASGNFNISADEPITVTPPDSQSYISVNYSVRINETYFTNVTVLNGSVFLSVMEKAQKMNDTIFGFTMEERSWGPYITCIQGLCANNNDRTYWELLSGGEPLSQGAGSYVVRNGENLEVRWSKY

The next lines start with the binder.

B1: signal transducer and activator of transcription 4 (STAT4), in 293T cells (protein, UniProt Q14765 1-748)
chain: MSQWNQVQQLEIKFLEQVDQFYDDNFPMEIRHLLAQWIENQDWEAASNNETMATILLQNLLIQLDEQLGRVSKEKNLLLIHNLKRIRKVLQGKFHGNPMHVAVVISNCLREERRILAAANMPVQGPLEKSLQSSSVSERQRNVEHKVAAIKNSVQMTEQDTKYLEDLQDEFDYRYKTIQTMDQSDKNSAMVNQEVLTLQEMLNSLDFKRKEALSKMTQIIHETDLLMNTMLIEELQDWKRRQQIACIGGPLHNGLDQLQNCFTLLAESLFQLRRQLEKLEEQSTKMTYEGDPIPMQRTHMLERVTFLIYNLFKNSFVVERQPCMPTHPQRPLVLKTLIQFTVKLRLLIKLPELNYQVKVKASIDKNVSTLSNRRFVLCGTNVKAMSIEESSNGSLSVEFRHLQPKEMKSSAGGKGNEGCHMVTEELHSITFETQICLYGLTIDLETSSLPVVMISNVSQLPNAWASIIWYNVSTNDSQNLVFFNNPPPATLSQLLEVMSWQFSSYVGRGLNSDQLHMLAEKLTVQSSYSDGHLTWAKFCKEHLPGKSFTFWTWLEAILDLIKKHILPLWIDGYVMGFVSKEKERLLLKDKMPGTFLLRFSESHLGGITFTWVDHSESGEVRFHSVEPYNKGRLSALPFADILRDYKVIMAENIPENPLKYLYPDIPKDKAFGKHYSSQPCEVSRPTERGDKGYVPSVFIPISTIRSDSTEPHSPSDLLPMSPSVYAVLRENLSPTTIETAMKSPYSAE
- binding [1]: binds

B3: TCN1 truncation mutant: deletion of the flexible linker region (311–332 aa) (domain or fragment, UniProt P20061)
chain: EICEVSEENYIRLKPLLNTMIQSNYNRGTSAVNVVLSLKLVGIQIQTLMQKMIQQIKYNVKSRLSDVSSGELALIILALGVCRNAEENLIYDYHLIDKLENKFQAEIENMEAHNGTPLTNYYQLSLDVLALCLFNGNYSTAEVVNHFTPENKNYYFGSQFSVDTGAMAVLALTCVKKSLINGQIKADEGSLKNISIYTKSLVEKILSEKKENGLIGNTFSTGEAMQALFVSSDYYNENDWNCQQTLNTVLTEISQGAFSNPNAAAQVLPALMGKTFLDINKDSSCVSYISVNYSVRINETYFTNVTVLNGSVFLSVMEKAQKMNDTIFGFTMEERSWGPYITCIQGLCANNNDRTYWELLSGGEPLSQGAGSYVVRNGENLEVRWSKY
- binding [3]: binds

B4: TCN1 truncation mutant: deletion of the N-terminal α-domain (24–310 aa) (domain or fragment, UniProt P20061)
chain: ASGNFNISADEPITVTPPDSQSYISVNYSVRINETYFTNVTVLNGSVFLSVMEKAQKMNDTIFGFTMEERSWGPYITCIQGLCANNNDRTYWELLSGGEPLSQGAGSYVVRNGENLEVRWSKY
- binding [3]: binds

B7: TCN1 truncation mutant: deletion of the C-terminal β-domain (333–433 aa) (domain or fragment, UniProt P20061 24-332)
chain: EICEVSEENYIRLKPLLNTMIQSNYNRGTSAVNVVLSLKLVGIQIQTLMQKMIQQIKYNVKSRLSDVSSGELALIILALGVCRNAEENLIYDYHLIDKLENKFQAEIENMEAHNGTPLTNYYQLSLDVLALCLFNGNYSTAEVVNHFTPENKNYYFGSQFSVDTGAMAVLALTCVKKSLINGQIKADEGSLKNISIYTKSLVEKILSEKKENGLIGNTFSTGEAMQALFVSSDYYNENDWNCQQTLNTVLTEISQGAFSNPNAAAQVLPALMGKTFLDINKDSSCVSASGNFNISADEPITVTPPDSQS
- binding [3]: no binding
